In publication PMC3599065:
Residue numbers refer to the chain shown, from its start. No constants are given. Whether binding was seen depends on the method and setting. Binding seen in cells or lysates may run through a third protein. Some entries that bind do so weakly or less than the wild type. For some assays here: Sequences can lack the tags named with a protein.

Assays:
[1] = target: T1, TAP-JIP1 (in Neuro2a) (mouse) (UniProt Q9WVI9); assay: pull-down; lysates of Neuro2a cells transiently expressing TAP-JIP1, treated with SP600125 (20 uM) or DMSO for 2 hours, precipitated with streptavidin sepharose, western blot
T1 sequence: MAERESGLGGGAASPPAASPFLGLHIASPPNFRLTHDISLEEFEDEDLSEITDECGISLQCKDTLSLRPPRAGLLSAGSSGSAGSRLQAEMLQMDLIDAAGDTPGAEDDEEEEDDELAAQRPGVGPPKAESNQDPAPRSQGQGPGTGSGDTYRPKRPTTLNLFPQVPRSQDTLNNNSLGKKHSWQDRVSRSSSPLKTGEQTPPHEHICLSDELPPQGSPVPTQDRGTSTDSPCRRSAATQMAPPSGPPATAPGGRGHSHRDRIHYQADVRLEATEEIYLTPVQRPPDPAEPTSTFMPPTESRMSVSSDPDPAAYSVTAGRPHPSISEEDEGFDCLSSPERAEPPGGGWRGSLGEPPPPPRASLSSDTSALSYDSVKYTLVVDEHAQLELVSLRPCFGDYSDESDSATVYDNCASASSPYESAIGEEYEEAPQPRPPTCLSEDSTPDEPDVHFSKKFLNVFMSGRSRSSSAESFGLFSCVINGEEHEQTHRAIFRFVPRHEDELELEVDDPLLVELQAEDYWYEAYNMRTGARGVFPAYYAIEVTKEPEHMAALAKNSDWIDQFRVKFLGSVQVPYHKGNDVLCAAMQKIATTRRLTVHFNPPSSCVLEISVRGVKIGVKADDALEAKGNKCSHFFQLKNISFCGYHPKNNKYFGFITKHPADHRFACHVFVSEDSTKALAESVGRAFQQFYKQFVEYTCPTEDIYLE

[2] = target: T1, TAP-JIP1 (in Neuro2a) (mouse); assay: pull-down; lysates of Neuro2a cells expressing TAP-JIP1 with T7-DLK-WT, T7-DLK-KR or empty vector (pUC8), precipitated with streptavidin sepharose, western blot of endogenous JIP3 and kinesin-1
[3] = target: T2, GFP-JIP1-WT (mouse) (UniProt Q9WVI9); assay: co-IP; lysates of differentiated Neuro2a cells expressing GFP-JIP1 constructs or GFP alone, immunoprecipitated with anti-GFP antibody, western blot of endogenous kinesin-1 (KHC), JNK and JIP3; 4 C, 150 mM NaCl, 20 mM Hepes pH 7.5, 0.5% Triton X-100
T2 sequence: T1 sequence

[4] = target: T3, GFP-JIP1-F687V (mouse) (UniProt Q9WVI9); assay: as above
T3 sequence: T1 sequence with F687V

[5] = target: T4, GFP-JIP1-dJBD (mouse) (UniProt Q9WVI9); assay: as above
T4 sequence: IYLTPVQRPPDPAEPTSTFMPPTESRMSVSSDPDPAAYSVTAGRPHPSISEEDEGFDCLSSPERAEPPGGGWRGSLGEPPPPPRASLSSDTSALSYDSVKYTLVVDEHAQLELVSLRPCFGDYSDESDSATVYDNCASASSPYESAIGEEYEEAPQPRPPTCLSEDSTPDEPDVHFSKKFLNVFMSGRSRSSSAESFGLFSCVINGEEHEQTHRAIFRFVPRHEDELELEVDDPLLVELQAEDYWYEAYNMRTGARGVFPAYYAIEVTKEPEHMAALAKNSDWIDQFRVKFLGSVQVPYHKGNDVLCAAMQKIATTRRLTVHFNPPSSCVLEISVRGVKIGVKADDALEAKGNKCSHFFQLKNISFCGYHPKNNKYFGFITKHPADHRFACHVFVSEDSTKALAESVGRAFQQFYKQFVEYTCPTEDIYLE

binding [1]: binds | binding [2]: binds | binding [3]: binds | binding [4]: no binding | binding [5]: binds
B1: JIP3 (endogenous, Neuro2a) (protein, UniProt Q9ESN9 1-1337)
chain: MMEIQMDEGGGVVVYQDDYCSGSVMSERVSGLAGSIYREFERLIHCYDEEVVKELMPLVVNVLENLDSVLSENQEHEVELELLREDNEQLLTQYEREKALRKQAEEKFIEFEDALEQEKKELQIQVEHYEFQTRQLELKAKNYADQISRLEERESEMKKEYNALHQRHTEMIQTYVEHIERSKMQQVGGSGQTESSLPGRSRKERPTSLNVFPLADGMVRAQMGGKLVPAGDHWHLSDLGQLQSSSSYQCPNDEMSESGQSSAAATPSTTGTKSNTPTSSVPSAAVTPLNESLQPLGDYVSVTKNNKQAREKRNSRNMEVQVTQEMRNVSIGMGSSDEWSDVQDIIDSTPELDVCPETRLERTGSSPTQGIVNKAFGINTDSLYHELSTAGSEVIGDVDEGADLLGEFSVRDDFFGMGKEVGNLLLENSQLLETKNALNVVKNDLIAKVDQLSGEQEVLKGELEAAKQAKVKLENRIKELEEELKRVKSEAVTARREPREEVEDVSSYLCTELDKIPMAQRRRFTRVEMARVLMERNQYKERLMELQEAVRWTEMIRASREHPSVQEKKKSTIWQFFSRLFSSSSSPPPAKRSYPSVNIHYKSPTAAGFSQRRSHALCQISAGSRPLEFFPDDDCTSSARREQKREQYRQVREHVRNDDGRLQACGWSLPAKYKQLSPNGGQEDTRMKNVPVPVYCRPLVEKDPSTKLWCAAGVNLSGWKPHEEDSSNGPKPVPGRDPLTCDREGEGEPKSTHPSPEKKKAKETPEADATSSRVWILTSTLTTSKVVIIDANQPGTIVDQFTVCNAHVLCISSIPAASDSDYPPGEMFLDSDVNPEDSGADGVLAGITLVGCATRCNVPRSNCSSRGDTPVLDKGQGDVATTANGKVNPSQSTEEATEATEVPDPGPSESEATTVRPGPLTEHVFTDPAPTPSSSTQPASENGSESNGTIVQPQVEPSGELSTTTSSAAPTMWLGAQNGWLYVHSAVANWKKCLHSIKLKDSVLSLVHVKGRVLVALADGTLAIFHRGEDGQWDLSNYHLMDLGHPHHSIRCMAVVNDRVWCGYKNKVHVIQPKTMQIEKSFDAHPRRESQVRQLAWIGDGVWVSIRLDSTLRLYHAHTHQHLQDVDIEPYVSKMLGTGKLGFSFVRITALLIAGNRLWVGTGNGVVISIPLTETVVLHRGQLLGLRANKTSPTSGEGTRPGGIIHVYGDDSSDKAASSFIPYCSMAQAQLCFHGHRDAVKFFVSVPGNVLATLNGSVLDSPSEGPGPAAPAADAEGQKLKNALVLSGGEGYIDFRIGDGEDDETEECAGDVNQTKPSLSKAERSHIIVWQVSYTPE
